# Measured values from the supplement of paper PMC8728848.
# The list shows a part of the results.
# B1: PkBDPgamma (Plasmodium knowlesi) (protein)
# chain: SAINQIFLQNNVMDKCNDKRKRGERDWDCPTEKDVCIPDRRYQLCMMEITNLVDTDTHFHSDIIFRKSYSRRRLIYDVGGRGDLLLKKYNNVYSEDLCKDIKWSLQDFGDIIMGTDMEGIGYSLVVQNNLRSIFGTGTSAELDRKKWWNDHKKDIWKAMILSVKEKNRYSAWNCKEDVQIKVEPQIYRWIREWGRDYMSEFREQRRKLNEKCEDKLYYSTMLICTLPPCNNACKSYDEWITGKKKQWDVLSTKFSSVKKAQKIETENIARAYDILKQELNGFNEVTFENEINKRDKLYNYFCVCIVQEARKNTQENVKNVGSGVESKAPSSNPINEAVKSSSGEGKVQEDSAHRSVNEGEGKSSTNEADPGSQPGAAASGGGSGGGTGGGVDLAPQMLRELQETNAALQDVRELLRQQVKEITFLKNTVMECDACGGPLDRNLPPLAPLGPTGGWSHPQFEK
# Assays:
# Test in all cases: glycan array binding signal (z-score within array); higher = stronger binding
# Conditions in all cases: glycan notation: IUPAC condensed, linker removed
# [1] = target: Neu5Ac(a2-6)Gal(b1-4)GlcNAc(b1-2)Man(a1-3)[Man(a1-6)]Man(b1-4)GlcNAc(b1-4)GlcNAc
# Outline: (§1)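 Glycan array data were curated from 3228 arrays in the Consortium for Functional Glycomics database and kept only where the protein sequence was available. Glycan names were converted to IUPAC-condensed notation, and columns mapping to the same glycan were averaged. The binding signal is a within-array Z-score, averaged across arrays of the same protein sequence at different concentrations or buffers and across linkers. Negative Z-scores can be read as non-binding.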
# [2] = target: Neu5Ac(a2-6)Gal(b1-4)GlcNAc(b1-2)Man(a1-3)[Neu5Ac(a2-3)Gal(b1-4)GlcNAc(b1-2)Man(a1-6)]Man(b1-4)GlcNAc(b1-4)GlcNAc
# Outline: as §1
# [3] = target: Neu5Ac(a2-6)Gal(b1-4)GlcNAc(b1-2)Man(a1-3)[Neu5Ac(a2-6)Gal(b1-4)GlcNAc(b1-2)Man(a1-6)]Man(b1-4)GlcNAc(b1-4)GlcNAc
# Outline: as §1
# [4] = target: Neu5Ac(a2-6)Gal(b1-4)GlcNAc(b1-2)Man(a1-3)[Neu5Ac(a2-6)Gal(b1-4)GlcNAc(b1-2)Man(a1-6)]Man(b1-4)GlcNAc(b1-4)[Fuc(a1-6)]GlcNAc
# Outline: as §1
# [5] = target: Neu5Ac(a2-6)Gal(b1-4)GlcNAc(b1-2)Man(a1-6)Man(b1-4)GlcNAc(b1-4)GlcNAc
# Outline: as §1
# [6] = target: Neu5Ac(a2-6)Gal(b1-4)GlcNAc(b1-2)Man(a1-6)[Gal(b1-4)GlcNAc(b1-2)Man(a1-3)]Man(b1-4)GlcNAc(b1-4)GlcNAc
# Outline: as §1
# [7] = target: Neu5Ac(a2-6)Gal(b1-4)GlcNAc(b1-2)Man(a1-6)[GlcNAc(b1-2)Man(a1-3)]Man(b1-4)GlcNAc(b1-4)GlcNAc
# Outline: as §1
# [8] = target: Neu5Ac(a2-6)Gal(b1-4)GlcNAc(b1-2)Man(a1-6)[Man(a1-3)]Man(b1-4)GlcNAc(b1-4)GlcNAc
# Outline: as §1
# [9] = target: Neu5Ac(a2-6)Gal(b1-4)GlcNAc(b1-2)[Neu5Ac(a2-6)Gal(b1-4)GlcNAc(b1-4)]Man(a1-3)[GlcNAc(b1-4)][Neu5Ac(a2-6)Gal(b1-4)GlcNAc(b1-2)[Neu5Ac(a2-6)Gal(b1-4)GlcNAc(b1-6)]Man(a1-6)]Man(b1-4)GlcNAc(b1-4)GlcNAc
# Outline: as §1
# [10] = target: Neu5Ac(a2-6)Gal(b1-4)GlcNAc(b1-2)[Neu5Ac(a2-6)Gal(b1-4)GlcNAc(b1-4)]Man(a1-3)[GlcNAc(b1-4)][Neu5Ac(a2-6)Gal(b1-4)GlcNAc(b1-4)Man(a1-6)]Man(b1-4)GlcNAc(b1-4)GlcNAc
# Outline: as §1
# [11] = target: Neu5Ac(a2-6)Gal(b1-4)GlcNAc(b1-2)[Neu5Ac(a2-6)Gal(b1-4)GlcNAc(b1-6)]Man(a1-6)[Neu5Ac(a2-6)Gal(b1-4)GlcNAc(b1-2)Man(a1-3)][GlcNAc(b1-4)]Man(b1-4)GlcNAc(b1-4)GlcNAc
# Outline: as §1
# [12] = target: Neu5Ac(a2-6)Gal(b1-4)GlcNAc(b1-3)Gal(b1-3)GlcNAc
# Outline: as §1
# [13] = target: Neu5Ac(a2-6)Gal(b1-4)GlcNAc(b1-3)Gal(b1-4)GlcNAc
# Outline: as §1
# [14] = target: Neu5Ac(a2-6)Gal(b1-4)GlcNAc(b1-3)Gal(b1-4)GlcNAc(b1-2)Man(a1-3)[Neu5Ac(a2-6)Gal(b1-4)GlcNAc(b1-3)Gal(b1-4)GlcNAc(b1-2)Man(a1-6)]GalNAc
# Outline: as §1
# [15] = target: Neu5Ac(a2-6)Gal(b1-4)GlcNAc(b1-3)Gal(b1-4)GlcNAc(b1-3)Gal(b1-4)GlcNAc
# Outline: as §1
# [16] = target: Neu5Ac(a2-6)Gal(b1-4)GlcNAc(b1-3)Gal(b1-4)GlcNAc(b1-3)Gal(b1-4)GlcNAc(b1-2)Man(a1-3)[Neu5Ac(a2-6)Gal(b1-4)GlcNAc(b1-3)Gal(b1-4)GlcNAc(b1-3)Gal(b1-4)GlcNAc(b1-2)Man(a1-6)]GalNAc
# Outline: as §1
# [17] = target: Neu5Ac(a2-6)Gal(b1-4)GlcNAc(b1-3)Gal(b1-4)GlcNAc(b1-3)GalNAc
# Outline: as §1
# [18] = target: Neu5Ac(a2-6)Gal(b1-4)GlcNAc(b1-3)Gal(b1-4)GlcNAc(b1-3)[Neu5Ac(a2-6)Gal(b1-4)GlcNAc(b1-3)Gal(b1-4)GlcNAc(b1-6)]GalNAc
# Outline: as §1
# [19] = target: Neu5Ac(a2-6)Gal(b1-4)GlcNAc(b1-3)Gal(b1-4)GlcNAc(b1-6)[Gal(b1-3)]GalNAc
# Outline: as §1
# [20] = target: Neu5Ac(a2-6)Gal(b1-4)GlcNAc(b1-3)Gal(b1-4)[Fuc(a1-3)]GlcNAc(b1-3)Gal(b1-4)[Fuc(a1-3)]GlcNAc
# Outline: as §1
# [21] = target: Neu5Ac(a2-6)Gal(b1-4)GlcNAc(b1-3)GalNAc
# Outline: as §1
# [22] = target: Neu5Ac(a2-6)Gal(b1-4)GlcNAc(b1-3)[Neu5Ac(a2-6)Gal(b1-4)GlcNAc(b1-6)]GalNAc
# Outline: as §1
# [23] = target: Neu5Ac(a2-6)Gal(b1-4)GlcNAc(b1-6)GalNAc
# Outline: as §1
# [24] = target: Neu5Ac(a2-6)Gal(b1-4)GlcNAc(b1-6)[Gal(b1-3)GlcNAc(b1-3)]Gal(b1-4)Glc
# Outline: as §1
# [25] = target: Neu5Ac(a2-6)Gal(b1-4)GlcNAc(b1-6)[Gal(b1-3)]GalNAc
# Outline: as §1
# [26] = target: Neu5Ac(a2-6)Gal(b1-4)GlcNAc6S
# Outline: as §1
# Neu5Ac(a2-6)GalNAc = target: Neu5Ac(a2-6)GalNAc
# Outline: as §1
# [27] = target: Neu5Ac(a2-6)GalNAc(b1-4)GlcNAc
# Outline: as §1
# [28] = target: Neu5Ac(a2-6)GalNAc(b1-4)GlcNAc6S
# Outline: as §1
# [29] = target: Neu5Ac(a2-6)GlcNAc(b1-4)GlcNAc
# Outline: as §1
# [30] = target: Neu5Ac(a2-6)GlcNAc(b1-4)GlcNAc(b1-4)GlcNAc
# Outline: as §1
binder,measurement,setting,value
B1,glycan array binding signal (z-score),[1],-0.558
same,glycan array binding signal (z-score),[2],0.43
same,glycan array binding signal (z-score),[3],-0.003
same,glycan array binding signal (z-score),[4],-0.048
same,glycan array binding signal (z-score),[5],0.247
same,glycan array binding signal (z-score),[6],0.037
same,glycan array binding signal (z-score),[7],-0.232
same,glycan array binding signal (z-score),[8],0.328
same,glycan array binding signal (z-score),[9],-0.13
same,glycan array binding signal (z-score),[10],-0.269
same,glycan array binding signal (z-score),[11],-0.382
same,glycan array binding signal (z-score),[12],-0.469
same,glycan array binding signal (z-score),[13],-0.094
same,glycan array binding signal (z-score),[14],0.091
same,glycan array binding signal (z-score),[15],0.015
same,glycan array binding signal (z-score),[16],0.405
same,glycan array binding signal (z-score),[17],-0.302
same,glycan array binding signal (z-score),[18],0.922
same,glycan array binding signal (z-score),[19],-0.108
same,glycan array binding signal (z-score),[20],0.035
same,glycan array binding signal (z-score),[21],0.327
same,glycan array binding signal (z-score),[22],-0.284
same,glycan array binding signal (z-score),[23],-0.383
same,glycan array binding signal (z-score),[24],1.24
same,glycan array binding signal (z-score),[25],-0.109
same,glycan array binding signal (z-score),[26],-0.657
same,glycan array binding signal (z-score),Neu5Ac(a2-6)GalNAc,-0.004
same,glycan array binding signal (z-score),[27],-0.045
same,glycan array binding signal (z-score),[28],-0.025
same,glycan array binding signal (z-score),[29],0.122
same,glycan array binding signal (z-score),[30],-0.479
